Here are results for 46 molecules from the supplement of paper PMC7580552.

Structures can show the parent of a compound that is named as a salt. The list shows a part of the results. Many values rest on one well or one pass, so single values are uncertain.
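Note: stationary (unshaken) cultures in 96-well plates, started at OD600 0.05 from mid-exponential cells, with compounds supplied from DMSO stocks.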

The assay relates to Escherichia coli W3110. Kind of assay: planktonic growth (OD600) relative to untreated control; higher = more growth. The conditions noted are these: 10 µM; 20-24 h; 30 °C; TB.
For the molecule `CCN1CC(CCN2CCOCC2)C(c2ccccc2)(c2ccccc2)C1=O` (stereo unspecified) [Doxapram hydrochloride], the planktonic growth came to 106%. Under `CCC1=C(C)CN(C(=O)NCCc2ccc(S(=O)(=O)NC(=O)N[C@H]3CC[C@H](C)CC3)cc2)C1=O` [Glimepiride] stands 100%; under `O=C1CCc2cc(OCCCCc3nnnn3C3CCCCC3)ccc2N1` [Cilostazol], 95%. The value for `CCS(=O)(=O)CCn1c([N+](=O)[O-])cnc1C` [Tinidazole] was 103%; that for `CCCCOc1cc(C(=O)NCCN(CC)CC)c2ccccc2n1` [Dibucaine] was 99%. The value for `COc1ccc2cc([C@@H](C)C(=O)O)ccc2c1` [(R) -Naproxen sodium salt] was 100%; that for `Nc1nc(=O)c2c([nH]1)NC[C@@H](CNc1ccc(C(=O)N[C@@H](CCC(=O)O)C(=O)O)cc1)N2C=O` [Folinic acid calcium salt] was 94%; that for `CCCCC(CC)CNC(=N)NC(=N)NCCCCCCNC(=N)NC(=N)NCC(CC)CCCC` (stereo unspecified) [Alexidine dihydrochloride] was 24%. Regarding `COC(=O)[C@@H]1[C@H]2C[C@H]3c4[nH]c5ccccc5c4CCN3C[C@@H]2CC[C@@H]1O` [Yohimbine hydrochloride], the planktonic growth amounted to 95%. The value for `CC1(C)NC(=O)N(c2ccc([N+](=O)[O-])c(C(F)(F)F)c2)C1=O` [Nilutamide] was 108%. On to `CN(CCOc1ccc(CC2SC(=O)NC2=O)cc1)c1ccccn1` (stereo unspecified) [Rosiglitazone Hydrochloride], for which the planktonic growth turned out to be 97%. Under `CCC(=O)OCC(=O)[C@@]1(OC(=O)CC)[C@H](C)C[C@H]2[C@H]3[C@H]([C@@H](O)C[C@@]21C)[C@@]1(C)C=CC(=O)C=C1C[C@H]3Cl` [Alclometasone dipropionate] stands 96%. Molecule `CC(N)C12CC3CC(CC(C3)C1)C2` (stereo unspecified) [Rimantadine Hydrochloride] registered a planktonic growth of 100%. Under `COc1ccc(C[C@@H]2c3cc(OC)c(OC)cc3CC[N@+]2(C)CCC(=O)OCCCCCOC(=O)CC[N@@+]2(C)CCc3cc(OC)c(OC)cc3[C@H]2Cc2ccc(OC)c(OC)c2)cc1OC` [Cisatracurium besylate] stands 107%; under `Nc1cc(-c2ccncc2)c[nH]c1=O` [Amrinone], 104%; under `Brc1c(NC2=NCCN2)ccc2nccnc12` [Brimonidine L-Tartrate], 94%. The value for `CN(C)CCOC(=O)COc1ccc(Cl)cc1` [Meclofenoxate hydrochloride] was 105%. The value for `N=C(N)N/N=C/c1c(Cl)cccc1Cl` [Guanabenz acetate] was 96%. For `OC(CCN1CCCCC1)(c1ccccc1)C1CCCCC1` (stereo unspecified) [Trihexyphenidyl-D,L Hydrochloride], the planktonic growth was determined as 101%. The value for `COc1ccc(C(=O)NCc2ccc(OCCN(C)C)cc2)cc1OC` [Itopride] was 97%. The value for `N[C@@H](C(=O)N[C@@H]1C(=O)N2C(C(=O)O)=C(Cl)CS[C@H]12)c1ccccc1` [Cefaclor hydrate] was 67%. The value for `CC(Oc1ccccc1)C(=O)N[C@@H]1C(=O)N2[C@@H]1SC(C)(C)[C@@H]2C(=O)O` (stereo partly specified) [Phenethicillin potassium salt] was 104%. Take `CN(C)[C@@H]1C(O)=C(C(N)=O)C(=O)[C@@]2(O)C(O)=C3C(=O)c4c(O)ccc(Cl)c4[C@@H](O)[C@H]3C[C@@H]12` [Demeclocycline hydrochloride]: the planktonic growth came out at 22%. The value for `Cn1c([N+](=O)[O-])cnc1COC(N)=O` [Ronidazole] was 92%; that for `O=C1c2ccccc2S(=O)(=O)N1CCCCN1CCN(c2ncccn2)CC1` [Ipsapirone] was 107%. Under `CC(Oc1c(Cl)cccc1Cl)C1=NCCN1` (stereo unspecified) [Lofexidine] stands 110%; under `CC1=C(CC(=O)O)c2cc(F)ccc2/C1=C\c1ccc([S+](C)[O-])cc1` (stereo unspecified) [Sulindac], 100%. The value for `Cc1noc(NS(=O)(=O)c2ccc(N)cc2)c1C` [Sulfisoxazole] was 52%; that for `CCc1cccc2c3c([nH]c12)C(CC)(CC(=O)O)OCC3` (stereo unspecified) [Etodolac] was 112%. As for `CC[N+](CC)(CC)CCC(O)(c1ccccc1)C1CCCCC1` (stereo unspecified) [Tridihexethyl chloride], the planktonic growth was 105%. Under `C[C@]12CC[C@@H]3c4ccc(O)cc4CC[C@H]3[C@@H]1C[C@@H](O)[C@@H]2O` [Estriol] stands 89%; under `CN(C)CCCO[C@@H]1[C@H]2OC(C)(C)O[C@H]2O[C@@H]1[C@H](O)CO` [Amiprilose hydrochloride], 100%; under `CO/N=C(\C(=O)N[C@@H]1C(=O)N2C(C(=O)O)=C(C[N+]3(C)CCCC3)CS[C@H]12)c1csc(N)n1` [Cefepime hydrochloride], 18%.

Regarding `CCOC(=O)[C@H](CCc1ccccc1)N[C@@H](C)C(=O)N1CCC[C@H]1C(=O)O` [Enalapril maleate], the planktonic growth came out at 100%. The value for `COc1ccc2[nH]c([S+]([O-])Cc3ncc(C)c(OC)c3C)nc2c1` (stereo unspecified) [Omeprazole] was 88%; that for `CC(=O)Nc1ccc(O)cc1` [Acetaminophen] was 96%. The value for `OCCOCCN1CCN(C(c2ccccc2)c2ccc(Cl)cc2)CC1` (stereo unspecified) [Hydroxyzine dihydrochloride] was 94%; that for `C=CC1=C(C(=O)O)N2C(=O)[C@@H](NC(=O)/C(=N\OCC(=O)O)c3csc(N)n3)[C@H]2SC1` [Cefixime] was 2%.

For the molecule `Cc1cc(-n2c(=O)[nH]c(=O)n(C)c2=O)ccc1Oc1ccc(SC(F)(F)F)cc1` [Toltrazuril], the planktonic growth worked out at 96%. Under `Cc1ccccc1N1C(=O)c2cc(S(N)(=O)=O)c(Cl)cc2NC1C` (stereo unspecified) [Metolazone] stands 25%; under `CN(C)CCOC(c1ccc(Cl)cc1)c1ccccn1` (stereo unspecified) [Carbinoxamine maleate salt], 113%. Under `O=C1CCc2ccc(OCCCCN3CCN(c4cccc(Cl)c4Cl)CC3)cc2N1` [Aripiprazole] stands 120%; under `NC(=O)NC1NC(=O)NC1=O` (stereo unspecified) [Allantoin], 106%; under `CC(C)NCC(O)c1ccc(O)c(O)c1` (single isomer, unassigned; (-)) [(-)-Isoproterenol hydrochloride], 93%. Under `O=C1C(O)=C([C@H]2CC[C@H](c3ccc(Cl)cc3)CC2)C(=O)c2ccccc21` [Atovaquone] stands 93%.

In turn, `Cc1ccccc1C(OCCN(C)C)c1ccccc1` (stereo unspecified) [Orphenadrine hydrochloride] showed a planktonic growth of 102%.
